Measured values taken from publication PMC9917443 (eLife, 2023).

Molecular target: GB1a/2 receptors (Homo sapiens, UniProt O75899+Q9UBS5)
Test: SRE-luciferase accumulation assay (Gαqi/PLC) in HEK293T-Gαqi cells
Details: GB1a/2 + APP, different curve for each data set; for EC50 of GABA in presence of peptide: 110 points

Sequence of GB1a/2 receptors (Q9UBS5 15-961 limits assumed): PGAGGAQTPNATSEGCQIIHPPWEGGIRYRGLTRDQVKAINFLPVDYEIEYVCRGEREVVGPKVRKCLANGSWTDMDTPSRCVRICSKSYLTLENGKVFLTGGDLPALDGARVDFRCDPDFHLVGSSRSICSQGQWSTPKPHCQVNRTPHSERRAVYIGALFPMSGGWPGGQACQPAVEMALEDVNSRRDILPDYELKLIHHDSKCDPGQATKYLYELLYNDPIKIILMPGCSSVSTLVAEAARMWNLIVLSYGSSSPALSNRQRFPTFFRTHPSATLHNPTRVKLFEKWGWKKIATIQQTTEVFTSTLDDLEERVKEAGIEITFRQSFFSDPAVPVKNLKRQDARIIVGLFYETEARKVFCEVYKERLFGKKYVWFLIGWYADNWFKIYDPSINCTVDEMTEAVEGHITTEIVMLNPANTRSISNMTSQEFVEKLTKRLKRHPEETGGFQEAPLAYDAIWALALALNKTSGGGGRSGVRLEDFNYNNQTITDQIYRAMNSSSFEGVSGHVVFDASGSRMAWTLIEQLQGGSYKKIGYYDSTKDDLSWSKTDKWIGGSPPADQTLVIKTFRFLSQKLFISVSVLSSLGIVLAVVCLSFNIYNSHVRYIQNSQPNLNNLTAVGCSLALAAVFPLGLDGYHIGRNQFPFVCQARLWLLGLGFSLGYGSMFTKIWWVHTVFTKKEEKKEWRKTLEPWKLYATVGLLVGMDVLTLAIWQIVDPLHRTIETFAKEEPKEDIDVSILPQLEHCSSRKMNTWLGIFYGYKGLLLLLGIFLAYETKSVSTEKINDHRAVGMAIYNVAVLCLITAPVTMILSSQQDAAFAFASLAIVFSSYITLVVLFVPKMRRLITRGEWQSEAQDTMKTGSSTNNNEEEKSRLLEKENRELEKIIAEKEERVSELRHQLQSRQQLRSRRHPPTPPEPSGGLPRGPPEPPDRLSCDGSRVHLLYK
Sequence of GB1a/2 receptors (O75899 42-941 partner): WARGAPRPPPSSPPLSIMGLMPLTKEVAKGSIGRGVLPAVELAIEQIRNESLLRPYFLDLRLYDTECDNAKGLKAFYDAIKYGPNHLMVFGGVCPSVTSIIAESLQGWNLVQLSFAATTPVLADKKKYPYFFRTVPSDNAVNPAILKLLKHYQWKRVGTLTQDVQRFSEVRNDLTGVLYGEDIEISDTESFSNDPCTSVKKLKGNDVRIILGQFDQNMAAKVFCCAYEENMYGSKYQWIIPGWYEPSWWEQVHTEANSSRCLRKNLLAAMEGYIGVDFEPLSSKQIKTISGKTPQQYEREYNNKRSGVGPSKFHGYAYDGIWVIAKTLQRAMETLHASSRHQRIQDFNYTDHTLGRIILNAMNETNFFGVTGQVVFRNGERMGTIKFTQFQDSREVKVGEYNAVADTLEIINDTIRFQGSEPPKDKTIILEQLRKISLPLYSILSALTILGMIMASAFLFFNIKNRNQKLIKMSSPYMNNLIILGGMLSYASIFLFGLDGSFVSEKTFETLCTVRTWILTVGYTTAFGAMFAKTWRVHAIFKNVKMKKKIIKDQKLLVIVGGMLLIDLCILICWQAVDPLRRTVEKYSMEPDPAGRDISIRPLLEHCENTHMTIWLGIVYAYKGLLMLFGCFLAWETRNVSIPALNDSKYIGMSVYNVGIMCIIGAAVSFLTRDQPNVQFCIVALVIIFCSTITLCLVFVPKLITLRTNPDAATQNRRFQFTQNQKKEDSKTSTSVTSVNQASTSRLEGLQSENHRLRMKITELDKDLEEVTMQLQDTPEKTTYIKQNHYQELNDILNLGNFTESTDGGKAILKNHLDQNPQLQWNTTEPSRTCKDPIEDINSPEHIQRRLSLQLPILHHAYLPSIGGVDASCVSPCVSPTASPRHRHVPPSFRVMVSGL

Substance: Ac-DDSDVWWGGADTDYADG-NH2 [APP17]
- HillSlope of GABA dose-response curve in presence of peptide (1μM peptide): 1.007
- Span of GABA dose-response curve in presence of peptide (1μM peptide): 0.7032
- EC50 of GABA in presence of peptide (1μM peptide): 313.3 nM
- HillSlope of GABA dose-response curve in presence of peptide (10μM peptide): 0.993
- Span of GABA dose-response curve in presence of peptide (10μM peptide): 0.6682
- EC50 of GABA in presence of peptide (10μM peptide): 341.3 nM
